Measured values from the RNAGym collection of RNA variant scans (doi:10.7554/elife.90254).
Read counts are not given, so values of variants with three or more changes are uncertain.

B1: LINE1-mini (parent)
chain: GGCAGAGCUCAACACAGCGUGGCAAAGUGGCUGUGGCUAGACUGCC

Variants of: B1
Assay: self-cleavage, relative activity (ratio to wild type); higher = more cleavage; in vitro, sequencing; the parent is a self-cleaving ribozyme

Variant	self-cleavage
GGCCGCGCUCAACAUAGCGUGGCAAAGUGGCUGUGGCUAGACUUCC	0.05
GGUAGAGCUCAACACAGCGUGGCAAAGCGGCAGUGGCUAGACUGCC	0.05
GGCCGAGCUCGACACGGAGUGGCAAAGUGGCUGUGUCUAGACUGCC	0.01
GGCCGAGCUCUACAGAGCGUGGCAAAGUGGCUGUUGCUAGACUGCC	0.02
GGUAGAGCUCAACACAGCGAGGCAAAGUGGUUGUGCCUAGACUGCC	0.03
GGUAGAGCUCAACACAGCGAGUCAAAGUGGCUGUAGCUAGACUGCC	0.17
GGCCGCGCUCAACACAGCGUGGCAACGUGGCGGUGGCUAGACUGCU	0.02
GGUAGAGCUCAACACAGCGCGGCAAAGUGGCUGUGGGUAGACUGCC	0.05
GGCCGGGCUCAACACAGCGUGGCAUAGUGGCUGUGGCUAGACUGCG	0.63
GGUAGAGCCCAACACAGCGUGGCAAAGAGGCUGUGGAUACACUGCA	0.01
GGUAGAGCUCAACACAGCGAGGCAAAGUGGCUGUGGCUAGACUGCU	0.04
GGCCGAGCUCUACAAGGCGUGGCAAAGUGGCUGUGGCUAGACUCCC	0.01
GGCCGCGCUCAACACAGCGUGGCAAAAUGGCUGUGUCUAGACUGCC	0.11
GGUAGAGCUCAACACAGCGUGGCAAAGUGGCUGCGGCGAGACUGCC	0.01
GGUAGAGCGCAACACAACGUGGCAAAGUUGCUGUGGCUAGACUGCC	0.22
GGUAGAGCGCAACACAACGUGGCAAAGUCGCUGUGGCUAGACUGCC	0.03
GGUAGAGCUCAACACAGCGAGGCAGAGUGGCUGGGGCUAGUCUGCC	0.09
GGUAGAGCUCAACACAGCGUGGCAAAGUGGCCGUGGCUAGACUGGC	0.08
GGUAGAGCGCAACACAGCGUGGCAAAGUGGCAGUGGCUAGACUGCC	0.05
GGCCGUGCUCAACACAGCGUGGAAAAGUGGCUGUGGCUAGACUGCC	0.14
GGUAGAGCUCAACACAGCGUGGCAAAGUGGCUGUGGCCAGCCGGCC	0.3
GGUAGAGCUCAACACAGCGCGGCAAAGUGGCUGUGCCUCGACUGCC	0.05
GGCCGCGGUCAACACAGCGUGGCAAAGUGGCUGUGGCUAGACUGCC	0.02

Variant	self-cleavage
GGCCGAGCUCUCCACAGCGUGGCACAGUGGCUGUGGCUAGACUGCC	0.01
GGUAGAGCACAACACAGCGUAGCAAAUUGGCUGUGCCUAAACUGCC	0.06
GGCCGUGCUCAACACAGCGUGACAAAGCGGCUGUGGCUAGACUGCC	0.14
GGCCGUGCUCAACACAGAGUGGCAAAGUGGCUGUGGCUAGACUGCC	0.04
GGCCGUGAUCAACACAGCGUAGCAAAGUGGCUGUGGCUAGACUGCC	1.21
GGCCGCGCUCAACACAUUGUGACAAAGUGGCUAUGGCUAGACUGCC	0.01
GGUAGAGCACAACACAGCGUGGGAAAGUGGCUGUGGCUAGACUGCC	0.31
GGUAGAGCUCAACACAGCGUGGCAAAGUGGCUGUGCCUAGACUGCU	0.26
GGUAGAGCACAACACAGCGUGGCAAAGUGGCUGUCGCUAGACGGCC	0.19
GGUAGAGCUCAACACAGCGGGGAAAAGUGGCAGUGGCUAGACUGCC	0.04
GGUAGAGCUCAACACAGCGUGGCAAAGUGGCUGUGGCCAGACUGCA	0.27
GGUAGAGCUCAACACAGCGUGGCAAAGUGGCUGUGGCUACACUUCC	0.02
GGUAGAGCUCAACACAGCGUGGCAAAGUUGCUGUGGCUAGUCUGCC	0.53
GGUAGAGCUCAACACAGCGUGGCAAAGUGGCUGUGUCUAGACUGUC	0.07
GGCCGAGCUCCACACAGCGUGGCAAUGUGGCUGUGGCUAGACUGGC	0.01
GGCCGAGCUCCAUACAGCGUGGCACAGUGGCUGGGGCUUGAGUGCC	0
GGUAGAGCUCAACACAGCGUGGCAAAGUGGCUUUGGUUAGACUGCC	0.08
GGUAGAGCUCAACACAGCGUGGCAAAGUGUCUGUGUCUAGACUGCC	0.28
GGUAGAGCUCAACACAGCGUGGCAAAGUGACUGUGGCUAGUCUGCU	0.16
GGCCGAGCUCUACACAGCGUGGCAAAGUGGCUGUGGCUAGGCUGCC	0
GGCCGAGCUCGACACAGCGUGGCAAAGUUGCUGCGGCUAGACUGCC	0.05
GGCCGAGCUCUACGCAGCGUCGCAAAGUGGCUGUGGCUAGACCGCC	0.03
GGUAGAGCGCAACACAGAGUGGCAAAGUGGCUGUGGCUAGUCUGCA	0.13

Variant	self-cleavage
GGUAGAGCUCAACACAGCGUGGCAAAGCAGCUGUGGCUAGACUGCC	0.09
GGUAGAGCUCAACACAGCGUGGCAAAGUGGCUGUUGCUAGACUGAC	0.1
GGUAGAGCUCAACACAGCGUGGCAAAGUGGCCUGGGCUAGACUGCC	0.03
GGCCGGGACCAACACUGCGUGACAACGUGGCUGUGACUAGACUGCC	0.53
GGUAGAGCUCAACACAGCGGGGCAAAGUGGCUGUGGCUAGAUUCCC	0.08
GGCCGGGCUCAACACAGCGUGGCAAAGUGCCUGUGGCUAGACUGCC	0.26
GGUAGAGCAAAACACAGCGUGGCAAAGUGGCUGUGGCUACACUGCC	0.02
GGUAGAGCACAACACAGCGUGUCAAAGUCGCUAUUGCAAGACCGCC	0
GGUAGAGCCCAACACAGCGUAGCAAAGUGGCUCUGGCUAGUCUGCC	0.03
GGUAGAGCUCAACACAGCGUGGCAAAGUGGCUUUGGCUAGACAGCC	0.08
GGUAGAGCUCAACACAGCGUGGCAAAGUGGCGGUGGCUAGACUGAC	0.07
GGCCGCGCUCAACACAGCGUCGCAAAGUGACUGUGGCUAGCCUGAC	0.04
GGCCGUGCUCAACACAGCGUGGCAAAGUGGCUGUGGCUAAACUGCC	0.07
GGCCGGGCUCAACACAGCGUGGCAAAGUGGCUGUGGCUAGUCUGCC	0.33
GGCCGGGUUCAACACAGCGUGGCAAAGUGGCUGUGGCUAGAUCACC	0.63
GGCCGAGCUCCACACAGCGUGACAAAGUGGCUGUGGCUAGACUGAC	0.01
GGUAGAGCUCAACACAGCGUGGCAAAGUGGCCGUGGCUAGAGUGCC	0.06
GGUAGAGCUCAACACAGCGUGGCAAAGUGGCUCUGUCUAGACUGCC	0.1
GGUAGAGCUCAACACAGCGGGGCAAAGUGGCUAUGGCUAGACUGCC	0.1
GGUAGAGCGCAACACAGCGUGGCAAAGUGGCUGUGGCUAGACAGCC	0.09
GGCCGAGCUCGACACAGCGUGGCAAAGUGGCUGUGGCUGGACUGCC	0.01
GGUAGAGCACACCACAGCGUGGCAAAGUGGCUGUGGCUCGACUGCC	0.04
GGUAGAGCUCAACACAGCGCGGCAAAGUGGAUUUGGCUAGACUGCC	0.05

Variant	self-cleavage
GGCCGCGCUCAACACCGCGUGGCAAAGUGGCUGUGGCUAGACUGCC	0.14
GGUAGAGCCCAAGACAGCGUGGCAAAGUGGCUGUGGCUAGACUGUC	0.01
GGCCGUGCUCAACACAGCGUGGCAAAGUGGUUGUGGCUAGACUGCC	0.19
GGUAGAGCACAACACAGCCUGGCAAUGUGUCUGUGGCUAGACUGCC	0.03
GGUAGAGCACAACACAACGUGGCAGAGAGGCUGUGGCUAGCCUGGC	0.05
GGUAGAGCUCAACACAGCGUGGCAAAGCGGCUGUGGGUAGACUGCC	0.02
GGUAGAGCACAACACAGCGUGGCAAAGUGGCUAUGGCUAGACUGCC	0.78
GGUAGAGCUCAACACAGCGUGGCAAAGUGGCUGGGGCAAGACUGCC	0.07
GGUAGAGCUCAACACAGCGUGGCAAAGUGGCCGUGGCUAGACAGCU	0.05
GGUAGAGCGCAACACAGCGUGGCAAAGUGGCCGAGGCUAGAGUGCC	0.05
GGCCGUGCUCAACACAGCGUGGCAAAGUGGCAGUGGCUAGACUGCC	0.01
GGUAGAGCUCAACACAGCGAAACAAAGUGGCUGUGGCUAGACAAAC	0.01
GGUAGAGCUCAACACAGCGUGGCAAAGGGGCUGUGCCUAGACUGCC	0.02
GGUAGAGCGCUACACAGCGUGGCAAAGUGGCUGGGGCUAGAAUGCC	0.01
GGUAGAGCUCAACACAGCGUGGCAAAGUGGCUUUGGCAAGACUGCC	0.08
GGUAGAGCUCAACACAGCGUGGCAAAGUGUCUGUGGCUAGACUCCG	0.01
GGUAGAGCUCAACACAGCGUGGCAAAGUGGCUGUGACUAGACGGCC	0.1
GGCCGAGCUCUACACAACGUGGAAAAGUGGCUGUGGCUUGACUGCC	0.01
GGUAGAGCUCAACACAGCGUGGCAAAGUGGCCAGGGCUAGACUGCC	0
GGUAGAGCUCAACACAGCGUGGCAAAGUGGCAUUGGCUGGACAGCC	0.01
GGUAGAGCUCAACACAGCGUGGCAAAGUGGCUGUGGCAAGACUGCA	0.33
GGCCGUGCUUAACACAGCGUGCCAAAGUGGCUGUGGCGAGACUGCC	0.02
GGCCGUGCUUAAUACGGCGUGGCAAAGUUGCUGUGGAUAGACUGCG	0.04

Variant	self-cleavage
GGUAGAGCACAACACAGCGUGGCAAAGUGUCUGUGGCUCGAUUGCC	0.1
GGUAGAGCUCAACACAGCGUGGCAAAGUGGCUAUGGCUGGACUGCC	0.1
GGUAGAGCUCAACACAGCGUGGCAAAGUGGCUAUGGCUCGACUGCC	0.08
GGUAGAGCCCAACACAGCGUGGCAAAGUAGCUGUGGCUAGACUGCC	0.04
GGUAGAGCUCAACACAGCGGCGCAAAGAGGACGUGGCUAGACUGCC	0.02
GGCCGCGCUCAAUACAGCGUGGCAAAGUGUCUGUGGCUAGUCUGCC	0.05
GGCCGUGCUCGACACAGCGUGGCAAAGUGGCUGUGGCUAAACUGCC	0.03
GGUAGAGCUCAACACAGCGUGGCAAAGUGGCUGUCACUAGACUUCC	0.11
GGCCGAGCUCCACACAGCGUGGCAAAGUGACUGUGGCUAGACUGCC	0.03
GGCCGAGCUCGACACAGCGUGGCAAAGGGGCUUUGGCUAGACUUAC	0
GGUAGAGCCCAACACGGCGUGGCAAAGUGGCUGUGGCUAGAGUGCC	0.01
GGUAGAGCUCAACACAGCGUGGCAAAGUCGCUUUGGCUAGACUGCC	0.03
GGUAGAGCACAACACUGCGUGGCAAAGUGGCUGUGGCUAGACUCCC	0.03
GGUAGAGCUCAACACAGCGUGGCAAAGUGGCUGUGGCUAGACUAGC	0.1
GGUAGAGCUCAACACAGCGUGGCAAAGUGCCUGUGGAUAGACUGCC	0.07
GGCCGGGAUCAACACAGCGUGGCAACGUGGCUGAGGCUAGACUGCC	0.1
GGUAGAGCACAACACAUCGUGGUAAAGUGGCUCUGGCUAGACUGCU	0.05
GGUAGAGCUCAACACAGCGAGGCAAAGUGGCUGUGGCUUAACUGCC	0.09
GGCCGGGCGCAACACAGCUUUGCAAAGUGGCCGUGGCUAGACUGCC	0.02
GGUAGAGCUCAACACAGCGCUGCAAAGUAGCUGUGGCUAGACUGCC	0.35
